{
  "source": "PubChem BioAssay AID2147",
  "about": "(National Center for Advancing Translational Sciences (NCATS), 2009)",
  "note": "Hit rate of the full screen: of about 230,000 compounds, about 3,600 (1.6%) were called active. The inconclusive results got no clear call from the source; some entries with a clear call stand among them for comparison. Calls come from the whole dose curve; as a rule, active = well fitted inhibition curve with a large enough effect (not every such curve was filed as active); inconclusive = small, poorly fitted or top-dose-only effect, or another doubt; inactive = no such curve, though single readings can be large or run the other way. Where the call is inconclusive, the potency comes from a doubtful curve fit. Note: nearly all actives have a fitted effect of over 50% in size. Potency is the fitted concentration of half-maximal effect; tags give direction and shape of the fitted curve.",
  "data": [
    {"molecular_target": "Lysine-specific demethylase 4E (Homo sapiens) (UniProt B2RXH2)", "sequence (B2RXH2 whole entry, looked up, the tested form may be a part)": "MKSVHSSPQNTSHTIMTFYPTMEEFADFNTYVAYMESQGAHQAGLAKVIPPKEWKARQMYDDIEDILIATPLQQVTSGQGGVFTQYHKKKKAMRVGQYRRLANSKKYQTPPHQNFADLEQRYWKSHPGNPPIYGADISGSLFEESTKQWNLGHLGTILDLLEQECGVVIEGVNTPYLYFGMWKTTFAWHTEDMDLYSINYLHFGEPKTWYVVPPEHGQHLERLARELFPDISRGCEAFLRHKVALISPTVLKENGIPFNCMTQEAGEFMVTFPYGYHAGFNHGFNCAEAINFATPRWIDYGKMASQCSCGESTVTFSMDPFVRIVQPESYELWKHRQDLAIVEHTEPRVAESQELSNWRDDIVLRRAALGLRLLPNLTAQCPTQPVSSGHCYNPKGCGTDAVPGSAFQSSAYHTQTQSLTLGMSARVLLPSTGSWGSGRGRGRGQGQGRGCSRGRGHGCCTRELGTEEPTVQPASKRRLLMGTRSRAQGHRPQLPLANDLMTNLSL", "test": "qHTS Assay for Inhibitors of Human Jumonji Domain Containing 2E (JMJD2E)", "conditions": "JMJD2E catalytic domain, FDH-coupled NADH fluorescence (FDH is formaldehyde dehydrogenase); series mostly up to 57.1 µM", "values": [
      {"smiles": "CCOC(=O)Cc1nnc(NC(=O)CSc2nnc3c4ccccc4n(C(C)C)c3n2)s1", "Potency": "inconclusive: 39.8 µM [inhibitor, single point]"},
      {"smiles": "CC1C2NC(=O)N(Cc3ccccc3)C1(C)Oc1ccccc12", "note": "(centres undefined)", "Potency": "inactive"},
      {"smiles": "Cc1c(CNC(=O)C2CC2)c(-n2cccc2)n(Cc2ccccc2)c1C", "Potency": "inconclusive: 39.8 µM [inhibitor, single point]"},
      {"smiles": "CCOC(=O)c1[nH]c2cc(OC)c(OC)cc2c1N", "Potency": "inconclusive: 31.6 µM [inhibitor, partial curve]"},
      {"smiles": "COc1ccc(/C=C/C(=O)C(C(N)=O)=C2SCCS2)cc1", "Potency": "inactive"},
      {"smiles": "N#Cc1ccc(C(=O)OCC(=O)Nc2ccc(N3CCOCC3)cc2)cc1", "Potency": "inactive"},
      {"smiles": "Nc1nc(Nc2ccccc2)nc2ccccc12", "Potency": "inactive"},
      {"smiles": "Cc1ccc2cc(CN(CCN3CCOCC3)C(=O)NCc3ccccc3)c(=O)[nH]c2c1C", "Potency": "inconclusive: 35.5 µM [inhibitor, single point]"},
      {"smiles": "O=c1c2ccccc2nnn1Cc1nnc(-c2ccccc2Br)o1", "Potency": "inactive"},
      {"smiles": "COC(=O)COc1cccc2c(=O)n(CC(=O)NCCc3ccccc3)ccc12", "Potency": "inconclusive: 39.8 µM [inhibitor, single point]"},
      {"smiles": "O=c1cc(Cc2ccccc2)[nH]c(=S)[nH]1", "Potency": "inactive"},
      {"smiles": "C=CCn1c(=NC(=O)c2ccco2)sc2cc(C(=O)OC)ccc21", "Potency": "inconclusive: 31.6 µM [inhibitor, partial curve]"},
      {"smiles": "COc1cccc(N2CC(C(=O)Oc3ccc4ccccc4c3)CC2=O)c1", "note": "(centres undefined)", "Potency": "inactive"},
      {"smiles": "Cc1cc(=O)cc2oc3cc(N)c(-c4c(C)cc(O)cc4O)c(C)c3nc1-2", "Potency": "active: 8.91 µM"},
      {"smiles": "CCCCN(C)C(=O)c1cc2cc3cc(OC)ccc3nc2o1", "Potency": "inconclusive: 28.2 µM [inhibitor, partial curve]"},
      {"smiles": "O=c1cc(CSc2nnc(C3CC3)n2Cc2ccccc2)nc2sccn12", "Potency": "inconclusive: 28.2 µM [inhibitor, single point]"},
      {"smiles": "Cc1cc2n(n1)C(c1cn(-c3ccccc3)nc1C)Nc1ccccc1-2", "note": "(centres undefined)", "Potency": "inconclusive: 5.62 µM [inhibitor, full curve]"},
      {"smiles": "CN1N=C(C(C)(C)C)CC1=O", "Potency": "inconclusive: 0.794 µM [inhibitor, full curve, poor fit]"},
      {"smiles": "CCOC(=O)c1cnn2c(C(F)F)cc(C3CC3)nc12", "Potency": "inconclusive: 0.708 µM [inhibitor, single point]"},
      {"smiles": "COc1ccc2cc(-c3[nH]ncc3CNCCn3nc(C)cc3C)ccc2c1", "Potency": "inconclusive: 35.5 µM [inhibitor, single point]"},
      {"smiles": "CCOC(=O)N1CCC(NC(=O)c2ccc3c(Cl)c4c(nc3c2)CCCC4)CC1", "Potency": "inactive"},
      {"smiles": "CCCc1cc(-c2[nH]ncc2-c2ccc3c(c2)OCCCO3)c(O)cc1OC", "Potency": "inconclusive: 25.1 µM [inhibitor, single point]"},
      {"smiles": "CC1(C)SC2C(NC(=O)C(N)c3ccccc3)C(=O)N2C1C(=O)O", "note": "(centres undefined)", "Potency": "inconclusive: 28.2 µM [inhibitor, partial curve]"},
      {"smiles": "COc1ccc(OC)c(/C=N/NC(=O)c2ccc3nc[nH]c3c2)c1", "Potency": "inconclusive: 31.6 µM [inhibitor, partial curve]"},
      {"smiles": "CCc1ccccc1N1CSC2=C(C#N)C(c3ccccc3F)CC(=O)N2C1", "note": "(centres undefined)", "Potency": "active: 31.6 µM"},
      {"smiles": "CCOC(=O)/C=C/C(=O)OCC(=O)Nc1ccc(Cl)cc1Cl", "Potency": "inactive"},
      {"smiles": "CN(CCO)CC(O)CN(c1ccccc1)c1ccccc1", "note": "(centres undefined)", "Potency": "inconclusive: 35.5 µM [inhibitor, single point]"},
      {"smiles": "CCCn1c(=NC(C)=O)c(C(=O)OCC)cc2c(=O)n3ccccc3nc21", "Potency": "inconclusive: 31.6 µM [inhibitor, partial curve]"},
      {"smiles": "CCOC(=O)c1nnn(CC(=O)N2N=C(c3ccccc3)CC2c2ccccc2)c1C(=O)OCC", "note": "(centres undefined)", "Potency": "inactive"},
      {"smiles": "CCCC(=O)O[C@]1(C(=O)CO)CCC2[C@@H]3CCC4=CC(=O)CC[C@]4(C)C3C(O)C[C@]21C", "note": "(some centres undefined)", "Potency": "inactive"},
      {"smiles": "COc1ccc(CC(NC(C)=O)C(=O)NC2CCN(C(=O)NCc3ccccc3)CC2)cc1OC", "note": "(centres undefined)", "Potency": "inactive"},
      {"smiles": "CCOC(=O)C1CCCN(Cc2ccccc2C)C1", "note": "(centres undefined)", "Potency": "inactive"},
      {"smiles": "CCN(CC)S(=O)(=O)c1ccc(N2CCOCC2)c(NC(=O)CCC2CCCCC2)c1", "Potency": "inactive"},
      {"smiles": "COc1ccc(-c2cc(-c3ccc(OC)cc3)[nH]n2)cc1", "Potency": "inactive"},
      {"smiles": "CCCCNC(=O)CSc1nc(O)c(Cc2ccc(OC)cc2)c(=O)[nH]1", "Potency": "inactive"},
      {"smiles": "CC(C)COc1ccc(C(=O)NC(CC(C)C)C(=O)O)cc1", "note": "(centres undefined)", "Potency": "inactive"},
      {"smiles": "CN(C(=O)c1ccc2c(c1)OCO2)C1(C(=O)NC2CCCCC2)CCCCC1", "Potency": "inconclusive: 7.08 µM [inhibitor, single point]"},
      {"smiles": "Cc1cc(C(=O)N/N=C/C=C/c2ccc3c(c2)OCO3)n[nH]1", "Potency": "inconclusive: 28.2 µM [inhibitor, partial curve]"},
      {"smiles": "O=C(Nc1cc(Sc2nc3ccccc3s2)cc([N+](=O)[O-])c1)c1ccccc1", "Potency": "inactive"},
      {"smiles": "Cc1c(C(=O)NCc2ccc3c(c2)OCO3)oc2ccc(S(=O)(=O)N3CCCC3)cc12", "Potency": "active: 35.5 µM"},
      {"smiles": "COc1cc(C(=O)Nc2ccc(-c3nnc(-c4ccco4)o3)cc2)cc(OC)c1OC", "Potency": "inconclusive: 35.5 µM [inhibitor, single point]"},
      {"smiles": "CC(C)(CO)N=Cc1c(O)[nH]c2ccccc12", "Potency": "inactive"},
      {"smiles": "CCN(CC)c1ccc(/C=N/NC(=O)CC(C)C)cc1", "Potency": "inconclusive: 31.6 µM [inhibitor, partial curve]"},
      {"smiles": "NC(=O)c1oc2ccccc2c1NC(=O)c1nc2ccccc2s1", "Potency": "inconclusive: 25.1 µM [inhibitor, single point]"},
      {"smiles": "O=C(CSc1n[nH]c(-c2cccs2)n1)NCc1ccc2c(c1)OCO2", "Potency": "inactive"},
      {"smiles": "COc1ccc(/C=N/NC(=O)c2ccc(COCC(F)(F)C(F)F)cc2)cc1", "Potency": "inconclusive: 35.5 µM [inhibitor, single point]"},
      {"smiles": "CC(C)CCn1cnc2c(cnn2-c2ccc(F)cc2)c1=O", "Potency": "inactive"},
      {"smiles": "CCOC(=O)c1cc2c(=O)n3cccc(C)c3nc2n(C)c1=N", "Potency": "inconclusive: 7.08 µM [inhibitor, partial curve]"},
      {"smiles": "CCOC(=O)N1CCN(C(=O)c2ccc(Oc3ccc([N+](=O)[O-])cc3)cc2)CC1", "Potency": "inactive"}
    ]}
  ]
}
